These are yes or no findings as the source states them, for the method shown. In cells and extracts the contact can be indirect. Some results given as binding are weak or reduced against the parent protein; the word gives no strength. For some assays here: Where a sequence is shown, tags or fusion partners need not be part of it. Blank lines part the entries; values can stand above or below the molecule they belong to.
Legend:
Myc-tagged RET-G93S = Myc-tagged RET-G93S (UniProt P07949); test: co-IP; U-2 OS cells transfected with HA-GRP78 and Myc-RET or Myc-RET mutants; MG132 20 μM for 4 h (Figure 7B); lysates precipitated with anti-Myc antibody
[1] = molecular target: Myc-tagged full-length RET (long isoform, RET 51), wild type (UniProt P07949); test: as above
[2] = molecular target: Myc-tagged full-length RET (long isoform, RET 51), wild type (UniProt P07949); test: co-IP; HEK293T cells with ATF4, RET and GRP78 (Figure S6D); competition
[3] = molecular target: Myc-tagged full-length RET (long isoform, RET 51), wild type (UniProt P07949); test: co-IP; U-2 OS cells co-transfected with FLAG-ATF4, Myc-RET and HA-GRP78; extracts precipitated with anti-Myc antibody; competition
recombinant GST-ATF4 = recombinant GST-ATF4 (UniProt P18848); test: pull-down; GST or recombinant GST-ATF4 immobilized on glutathione-agarose beads, incubated at 4 °C for 2 h with whole-cell extracts of U-2 OS cells expressing WT RET or mutants; immunoblot; only the target purified
HA-Cbl-c [4] = molecular target: T1, HA-Cbl-c (UniProt Q9ULV8); test: co-IP; U-2 OS/BTZ cells with HA-Cbl-c after knockdown of ATF4, treated with 20 μM MG132 for 4 h; endogenous RET with HA-Cbl-c
T1 sequence: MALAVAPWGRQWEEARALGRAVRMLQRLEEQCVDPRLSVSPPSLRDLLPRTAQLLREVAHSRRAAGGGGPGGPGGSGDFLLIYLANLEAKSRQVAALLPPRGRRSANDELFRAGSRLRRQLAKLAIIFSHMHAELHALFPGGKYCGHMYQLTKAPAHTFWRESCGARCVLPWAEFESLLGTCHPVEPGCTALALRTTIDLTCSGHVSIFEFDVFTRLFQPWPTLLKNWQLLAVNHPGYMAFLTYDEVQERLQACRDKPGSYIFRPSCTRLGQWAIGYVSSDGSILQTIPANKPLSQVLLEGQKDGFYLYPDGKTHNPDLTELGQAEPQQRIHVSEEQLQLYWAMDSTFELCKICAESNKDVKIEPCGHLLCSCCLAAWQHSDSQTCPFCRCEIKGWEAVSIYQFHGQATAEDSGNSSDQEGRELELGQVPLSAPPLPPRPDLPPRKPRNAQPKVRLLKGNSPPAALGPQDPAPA

Sequences of proteins named here, by UniProt entry; tags and fusion partners are left off. A change or cut given only in a name is not applied to a line headed by its entry. A line that says so, or that is headed by a name, gives the form on record, which may keep a tag or linker. Residues count along the entry.
Myc-tagged full-length RET (long isoform, RET 51), wild type (P07949, residues 29-1114): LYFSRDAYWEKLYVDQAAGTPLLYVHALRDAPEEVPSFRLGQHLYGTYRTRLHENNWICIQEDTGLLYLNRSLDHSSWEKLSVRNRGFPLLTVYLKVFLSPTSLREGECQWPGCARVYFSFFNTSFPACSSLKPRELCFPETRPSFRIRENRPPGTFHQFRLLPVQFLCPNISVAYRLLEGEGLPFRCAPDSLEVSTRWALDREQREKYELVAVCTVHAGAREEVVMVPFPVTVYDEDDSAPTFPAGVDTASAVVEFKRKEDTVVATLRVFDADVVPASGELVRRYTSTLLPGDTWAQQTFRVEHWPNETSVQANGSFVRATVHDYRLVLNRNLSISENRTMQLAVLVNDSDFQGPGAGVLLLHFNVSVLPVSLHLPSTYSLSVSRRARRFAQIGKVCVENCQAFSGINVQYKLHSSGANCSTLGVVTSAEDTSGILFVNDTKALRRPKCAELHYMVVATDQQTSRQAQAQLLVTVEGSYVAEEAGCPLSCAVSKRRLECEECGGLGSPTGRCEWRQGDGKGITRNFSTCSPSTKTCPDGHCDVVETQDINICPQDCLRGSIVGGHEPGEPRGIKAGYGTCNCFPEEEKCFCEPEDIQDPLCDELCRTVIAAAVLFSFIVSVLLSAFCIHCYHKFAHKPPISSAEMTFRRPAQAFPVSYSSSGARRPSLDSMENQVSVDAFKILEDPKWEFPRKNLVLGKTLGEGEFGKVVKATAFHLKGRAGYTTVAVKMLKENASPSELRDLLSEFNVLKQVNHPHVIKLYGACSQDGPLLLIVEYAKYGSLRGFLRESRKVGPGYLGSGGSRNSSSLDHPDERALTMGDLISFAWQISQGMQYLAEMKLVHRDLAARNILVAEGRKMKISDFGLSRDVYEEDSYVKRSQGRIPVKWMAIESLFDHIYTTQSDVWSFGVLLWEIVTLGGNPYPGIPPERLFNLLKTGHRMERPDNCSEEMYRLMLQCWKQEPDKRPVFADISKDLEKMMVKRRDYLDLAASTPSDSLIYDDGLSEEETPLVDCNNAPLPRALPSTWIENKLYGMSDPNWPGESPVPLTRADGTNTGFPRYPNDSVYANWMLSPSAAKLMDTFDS
Myc-tagged RET-G93S (P07949, form named): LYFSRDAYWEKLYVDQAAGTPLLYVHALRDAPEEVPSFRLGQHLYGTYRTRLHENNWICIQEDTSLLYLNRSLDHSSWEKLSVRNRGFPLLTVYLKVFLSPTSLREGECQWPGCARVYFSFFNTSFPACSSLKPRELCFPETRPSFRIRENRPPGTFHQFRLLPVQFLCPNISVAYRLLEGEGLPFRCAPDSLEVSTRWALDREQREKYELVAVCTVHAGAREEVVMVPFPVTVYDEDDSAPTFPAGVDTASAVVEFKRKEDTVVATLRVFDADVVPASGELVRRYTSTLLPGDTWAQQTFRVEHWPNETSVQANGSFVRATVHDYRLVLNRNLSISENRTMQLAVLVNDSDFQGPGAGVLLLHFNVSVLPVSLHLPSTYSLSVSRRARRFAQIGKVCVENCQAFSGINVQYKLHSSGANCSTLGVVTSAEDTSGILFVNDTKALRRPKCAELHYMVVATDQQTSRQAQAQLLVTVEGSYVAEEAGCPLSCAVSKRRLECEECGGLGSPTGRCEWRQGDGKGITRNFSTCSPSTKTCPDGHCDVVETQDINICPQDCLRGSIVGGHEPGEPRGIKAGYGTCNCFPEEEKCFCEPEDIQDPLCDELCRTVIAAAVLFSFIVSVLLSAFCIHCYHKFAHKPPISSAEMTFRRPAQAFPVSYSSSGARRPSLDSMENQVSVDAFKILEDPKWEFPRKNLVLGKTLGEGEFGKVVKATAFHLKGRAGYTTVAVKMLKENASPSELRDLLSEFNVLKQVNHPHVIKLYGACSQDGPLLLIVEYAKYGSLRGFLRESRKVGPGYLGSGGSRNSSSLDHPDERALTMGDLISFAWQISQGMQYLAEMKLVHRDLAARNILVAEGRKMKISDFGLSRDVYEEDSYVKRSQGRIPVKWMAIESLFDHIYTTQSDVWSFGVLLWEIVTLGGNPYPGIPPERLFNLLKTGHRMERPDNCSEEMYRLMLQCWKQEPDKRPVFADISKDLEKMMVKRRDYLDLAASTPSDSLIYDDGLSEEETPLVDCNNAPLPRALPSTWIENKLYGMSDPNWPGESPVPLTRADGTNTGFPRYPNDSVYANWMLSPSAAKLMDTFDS
Myc-tagged RET-C634W (P07949, form named): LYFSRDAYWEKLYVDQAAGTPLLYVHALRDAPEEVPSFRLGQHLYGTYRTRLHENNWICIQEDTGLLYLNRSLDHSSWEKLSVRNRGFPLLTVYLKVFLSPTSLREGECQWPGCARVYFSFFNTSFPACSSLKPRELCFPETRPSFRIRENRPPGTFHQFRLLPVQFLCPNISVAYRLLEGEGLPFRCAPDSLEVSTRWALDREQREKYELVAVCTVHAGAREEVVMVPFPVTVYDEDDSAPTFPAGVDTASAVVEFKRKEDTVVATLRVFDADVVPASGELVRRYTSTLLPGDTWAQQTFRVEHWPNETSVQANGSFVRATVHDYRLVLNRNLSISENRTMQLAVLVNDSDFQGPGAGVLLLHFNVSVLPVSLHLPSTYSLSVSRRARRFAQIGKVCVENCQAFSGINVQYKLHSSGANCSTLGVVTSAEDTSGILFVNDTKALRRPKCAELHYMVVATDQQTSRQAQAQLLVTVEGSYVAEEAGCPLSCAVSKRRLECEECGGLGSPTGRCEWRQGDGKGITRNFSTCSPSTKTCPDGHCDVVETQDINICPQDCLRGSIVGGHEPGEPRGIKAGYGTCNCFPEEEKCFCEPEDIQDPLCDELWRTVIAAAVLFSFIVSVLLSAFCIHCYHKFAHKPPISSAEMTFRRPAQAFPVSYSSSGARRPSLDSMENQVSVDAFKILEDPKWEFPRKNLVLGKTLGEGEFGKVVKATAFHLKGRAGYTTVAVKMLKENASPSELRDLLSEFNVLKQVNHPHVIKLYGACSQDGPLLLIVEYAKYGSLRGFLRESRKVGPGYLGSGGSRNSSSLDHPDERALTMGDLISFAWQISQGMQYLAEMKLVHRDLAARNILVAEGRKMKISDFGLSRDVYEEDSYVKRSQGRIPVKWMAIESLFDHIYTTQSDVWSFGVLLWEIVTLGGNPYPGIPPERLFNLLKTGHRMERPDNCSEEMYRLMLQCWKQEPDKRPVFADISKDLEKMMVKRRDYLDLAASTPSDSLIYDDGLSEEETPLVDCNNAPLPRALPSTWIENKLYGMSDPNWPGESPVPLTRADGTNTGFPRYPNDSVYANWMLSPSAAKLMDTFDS
Myc-tagged RET-K758M (P07949, form named): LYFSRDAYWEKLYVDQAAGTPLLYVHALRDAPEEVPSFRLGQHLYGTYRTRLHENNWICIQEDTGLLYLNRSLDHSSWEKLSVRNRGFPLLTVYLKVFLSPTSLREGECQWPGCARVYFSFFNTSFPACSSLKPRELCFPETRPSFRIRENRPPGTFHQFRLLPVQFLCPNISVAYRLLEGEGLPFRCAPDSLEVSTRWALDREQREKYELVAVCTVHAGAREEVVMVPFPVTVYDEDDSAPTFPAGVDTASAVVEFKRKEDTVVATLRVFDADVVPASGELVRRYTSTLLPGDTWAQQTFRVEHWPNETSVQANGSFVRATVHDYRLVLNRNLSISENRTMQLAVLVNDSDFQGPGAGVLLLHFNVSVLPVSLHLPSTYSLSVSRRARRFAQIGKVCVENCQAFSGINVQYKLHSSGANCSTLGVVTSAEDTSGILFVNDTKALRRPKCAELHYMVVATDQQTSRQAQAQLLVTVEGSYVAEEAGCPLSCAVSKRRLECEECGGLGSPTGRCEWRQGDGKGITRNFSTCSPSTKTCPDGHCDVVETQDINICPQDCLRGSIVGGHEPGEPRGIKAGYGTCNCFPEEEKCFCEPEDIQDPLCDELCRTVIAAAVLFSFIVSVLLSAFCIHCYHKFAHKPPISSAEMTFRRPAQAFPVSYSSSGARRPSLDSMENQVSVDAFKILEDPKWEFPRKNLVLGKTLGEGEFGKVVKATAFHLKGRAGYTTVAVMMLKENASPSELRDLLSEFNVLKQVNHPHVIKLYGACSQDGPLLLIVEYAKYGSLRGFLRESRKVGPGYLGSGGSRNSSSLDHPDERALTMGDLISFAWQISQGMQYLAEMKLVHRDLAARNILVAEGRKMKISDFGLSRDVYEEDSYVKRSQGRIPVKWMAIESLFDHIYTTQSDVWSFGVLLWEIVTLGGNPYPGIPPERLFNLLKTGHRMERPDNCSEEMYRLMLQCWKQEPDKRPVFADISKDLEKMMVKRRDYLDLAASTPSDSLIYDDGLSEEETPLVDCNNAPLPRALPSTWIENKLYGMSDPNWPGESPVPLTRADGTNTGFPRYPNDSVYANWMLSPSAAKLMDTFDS
Myc-tagged RET-M918T (P07949, form named): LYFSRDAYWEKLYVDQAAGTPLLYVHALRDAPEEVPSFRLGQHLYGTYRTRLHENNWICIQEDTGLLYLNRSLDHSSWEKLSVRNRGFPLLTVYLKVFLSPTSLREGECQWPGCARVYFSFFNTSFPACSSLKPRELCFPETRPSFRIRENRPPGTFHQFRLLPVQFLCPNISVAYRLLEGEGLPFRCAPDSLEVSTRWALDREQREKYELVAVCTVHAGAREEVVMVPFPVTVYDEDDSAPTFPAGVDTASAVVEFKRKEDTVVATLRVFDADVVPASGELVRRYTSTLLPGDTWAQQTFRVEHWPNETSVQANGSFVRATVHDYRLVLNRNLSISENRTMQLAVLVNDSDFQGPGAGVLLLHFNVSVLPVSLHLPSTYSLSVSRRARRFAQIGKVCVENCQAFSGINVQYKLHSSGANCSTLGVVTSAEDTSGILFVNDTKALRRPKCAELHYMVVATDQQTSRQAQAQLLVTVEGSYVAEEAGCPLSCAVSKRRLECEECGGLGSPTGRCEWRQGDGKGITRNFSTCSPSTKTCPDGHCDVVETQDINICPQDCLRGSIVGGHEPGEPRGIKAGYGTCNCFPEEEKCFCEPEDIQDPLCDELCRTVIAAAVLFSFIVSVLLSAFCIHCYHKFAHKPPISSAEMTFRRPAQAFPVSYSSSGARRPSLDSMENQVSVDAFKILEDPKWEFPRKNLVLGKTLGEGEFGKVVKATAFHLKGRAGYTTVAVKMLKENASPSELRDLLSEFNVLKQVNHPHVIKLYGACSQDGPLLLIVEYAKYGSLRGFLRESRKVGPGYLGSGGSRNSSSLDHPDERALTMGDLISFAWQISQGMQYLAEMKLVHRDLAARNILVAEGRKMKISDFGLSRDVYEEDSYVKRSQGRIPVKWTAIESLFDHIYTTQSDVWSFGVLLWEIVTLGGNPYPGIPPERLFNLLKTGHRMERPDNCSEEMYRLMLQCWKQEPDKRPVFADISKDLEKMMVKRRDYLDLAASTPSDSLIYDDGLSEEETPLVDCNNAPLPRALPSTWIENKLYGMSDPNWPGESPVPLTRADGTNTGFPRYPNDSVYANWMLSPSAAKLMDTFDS
UniProt P18848: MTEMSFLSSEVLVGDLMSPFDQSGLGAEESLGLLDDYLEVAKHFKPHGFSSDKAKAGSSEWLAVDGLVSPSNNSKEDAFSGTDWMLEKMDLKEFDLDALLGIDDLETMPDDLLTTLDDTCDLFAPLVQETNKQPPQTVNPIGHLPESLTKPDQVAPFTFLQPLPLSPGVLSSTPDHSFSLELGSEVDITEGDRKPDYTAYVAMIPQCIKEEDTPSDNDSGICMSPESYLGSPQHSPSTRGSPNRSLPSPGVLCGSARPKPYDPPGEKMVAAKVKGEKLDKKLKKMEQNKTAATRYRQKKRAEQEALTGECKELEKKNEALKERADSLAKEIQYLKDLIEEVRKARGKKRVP
UniProt P11021, residues 19-654: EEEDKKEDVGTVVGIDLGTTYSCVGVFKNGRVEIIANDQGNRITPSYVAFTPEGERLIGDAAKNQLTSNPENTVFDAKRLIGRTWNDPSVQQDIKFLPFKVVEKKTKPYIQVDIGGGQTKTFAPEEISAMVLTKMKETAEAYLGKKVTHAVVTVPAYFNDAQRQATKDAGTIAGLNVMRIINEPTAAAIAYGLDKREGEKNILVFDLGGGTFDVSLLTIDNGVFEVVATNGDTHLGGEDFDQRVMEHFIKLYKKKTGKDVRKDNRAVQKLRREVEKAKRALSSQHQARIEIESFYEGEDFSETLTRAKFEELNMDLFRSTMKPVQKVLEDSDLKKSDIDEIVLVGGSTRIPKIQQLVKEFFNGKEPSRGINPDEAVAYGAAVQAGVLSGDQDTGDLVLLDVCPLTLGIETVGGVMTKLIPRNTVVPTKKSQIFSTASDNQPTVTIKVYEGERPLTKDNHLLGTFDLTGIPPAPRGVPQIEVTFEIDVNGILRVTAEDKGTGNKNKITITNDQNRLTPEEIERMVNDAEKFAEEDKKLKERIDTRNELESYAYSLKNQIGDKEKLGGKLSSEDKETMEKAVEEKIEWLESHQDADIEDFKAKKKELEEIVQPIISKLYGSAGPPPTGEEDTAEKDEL

HA-Cbl-c [5] = molecular target: T1, HA-Cbl-c; test: co-IP; U-2 OS/BTZ cells with HA-Cbl-c, with or without FLAG-ATF4, treated with 20 μM MG132 for 4 h; endogenous RET found with HA-Cbl-c
[6] = molecular target: Myc-tagged full-length RET (long isoform, RET 51), wild type (UniProt P07949); test: co-IP; HEK293T cells with ectopic HA-Cbl-c, FLAG-ATF4 and Myc-RET (Figure S5G); also with Cbl-c overexpressed or knocked down (Figure S5H); bait not told

binding (Myc-tagged RET-G93S): binds
binding [1]: binds
binding [2]: binds
binding [3]: binds
Molecule: HA-GRP78 (from UniProt P11021 19-654)

binding (recombinant GST-ATF4): binds
Molecule: Myc-tagged RET-M918T (from UniProt P07949 29-1114) (receptor)

binding (HA-Cbl-c [4]): binds weakly
binding (HA-Cbl-c [5]): binds
Molecule: endogenous RET of U-2 OS/BTZ cells (from UniProt P07949 29-1114) (receptor)

Second part, the molecule before the results:

Molecule: Myc-tagged RET-C634W (from UniProt P07949 29-1114) (receptor)
binding (recombinant GST-ATF4): binds

Molecule: Myc-tagged RET-K758M (from UniProt P07949 29-1114) (receptor)
binding (recombinant GST-ATF4): no binding

Molecule: Myc-tagged full-length RET (long isoform, RET 51), wild type (from UniProt P07949-1 29-1114) (receptor)
binding (recombinant GST-ATF4): binds

B1: HA-Cbl-c (enzyme, UniProt Q9ULV8 1-474)
chain: T1 sequence
binding [6]: binds

Reference: publication PMC6735522
